# Measurements published in PubChem BioAssay AID1347120 (National Center for Advancing Translational Sciences (NCATS), 2019).
# In all, about 390,000 compounds went through this assay and about 930 (0.24%) were called active. Inconclusive results, whose numbers are uncertain, are shown with a selection of clear calls. Calls come from the whole dose curve; as a rule, active = well fitted activation curve with a large enough effect; inconclusive = small, poorly fitted or top-dose-only effect; inactive = no such curve, though single readings can be large or run the other way. Potencies of inconclusive entries are doubtful fits and often do not repeat.
# Experiment: qHTS for Suppressors of FUS Proteinopathy: Primary screen using FUS-linked yeast assay; note: nearly all actives have a fitted effect of over 55% in size
# Details: S. cerevisiae FUS-expressing, OD600, 24 h; Potency: growth rescue; series mostly up to 76.6 µM
# Summary of the method: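 Quantitative HTS measuring growth restoration of FUS-toxic yeast. Galactose-induced cells (OD 0.005) were exposed 24hr at 30C to compounds at several concentrations, then absorbance at 600 nm was recorded.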
# Potency is the fitted concentration of half-maximal effect; tags give direction and shape of the fitted curve.
row,Compound,Potency
1,Cc1ccc(-c2nc3ccccc3c(C(=O)NCc3cccs3)c2C)cc1,"inconclusive: 50.1 µM [activator, single point]"
2,Cc1csc(NC(=O)CSc2nnnn2C)n1,inactive
3,CCOC(=O)[C@H]1[C@H]2COc3ccc(C)cc3[C@@H]2N2C(=O)c3cc(F)ccc3NC(=O)[C@@]12C,inactive
4,COC(=O)[C@]12C[C@H](CC(=O)NCCC(C)C)C(=O)N(Cc3cccc4ccccc34)C1=C[C@H](C1CCCC1)O[C@@H]2C,"inconclusive: 11.2 µM [activator, partial curve, poor fit]"
5,COC(=O)C1=C(C(=O)OC)[C@]2([C@H]3CCCCN[C@@H](Cc4ccccc4)C(=O)N3Cc3ccccc3)C=C[C@H]1O2,"inconclusive: 8.91 µM [activator, partial curve, poor fit]"
6,O=C(C1CCC(Cn2c(=O)c3sccc3n(Cc3cccc(F)c3)c2=O)CC1)N1CCOCC1 (stereo not drawn),"inconclusive: 15.8 µM [activator, partial curve]"
7,Cc1cc(Cl)cc(C)c1OCC(=O)N1CCN(c2ncccn2)CC1,inactive
8,CCc1ccc(C2c3c(-c4ccccc4)n[nH]c3C(=O)N2c2ccc(C(=O)O)cc2)cc1 (stereo not drawn),"inconclusive: 50.1 µM [activator, single point]"
9,Cc1cc2nc(-c3ccc(SCC(=O)Nc4ccc(S(=O)(=O)NC5CC5)cc4)nc3)[nH]c2cc1C,"inconclusive: 35.5 µM [activator, partial curve, poor fit]"
10,CCN(CC)c1c([N+](=O)[O-])c(=O)n(C)c2ccccc12,inactive
11,CCOc1ccc(N=C2SC(C(=O)Nc3ccccc3C#N)C(N)=C2C(=O)Nc2ccc(Cl)cc2)cc1 (stereo not drawn),active: 35.5 µM
12,Cc1ccc(C(=O)N2CCN3C(=O)c4ccccc4C23c2ccc(Cl)cc2)cc1 (stereo not drawn),"inconclusive: 28.2 µM [activator, partial curve, poor fit]"
13,CCCc1nc2ccccc2c(C(=O)OCC(=O)Nc2cccc(S(=O)(=O)N3CCOCC3)c2)c1CC,"inconclusive: 39.8 µM [activator, partial curve, poor fit]"
14,COC(=O)c1c(NC(=O)C2(C)Cc3ccccc3C(=O)O2)sc2c1CCCC2 (stereo not drawn),active: 3.98 µM
15,O=C(Nc1cccc(S(=O)(=O)N2CCCC2)c1)c1ccc(Cl)nc1,inactive
16,CCc1cc2c(cc3c(=O)n(CC(=O)NCCc4ccccc4)ncn32)s1,inactive
17,O=C(Nc1ccc(Cl)c(C(F)(F)F)c1)C(Cc1ccccc1)NS(=O)(=O)c1cccc2nsnc12 (stereo not drawn),inactive
18,CN(C)c1cccc(-c2cc(Nc3ccc(C(C)(C)C)cc3)ncn2)c1,"inconclusive: 31.6 µM [activator, partial curve, poor fit]"
19,Cc1ccc2c(C(=O)N3CCN(c4ccccc4)CC3)cc(-c3cccnc3)nc2c1C,inactive
20,COC(=O)c1ccc2c(=O)n(CCCCCC(=O)NCc3ccc(OC)cc3)c(=O)[nH]c2c1,"inconclusive: 50.1 µM [activator, single point]"
21,O=c1c2ccccc2n(Cc2ccco2)n1[C@@H](Cc1ccccc1)Cn1cc(-c2ccc(-c3ccccc3)cc2)nn1,active: 17.8 µM

row,Compound,Potency
1,c1ccc(-c2nc3c4ccccc4ccn3c2Cc2ccsc2)cc1,inactive
2,CC(OC(=O)c1ccc(NC(=O)CC#N)cc1)C(=O)Nc1ccc2c(c1)OCCO2 (stereo not drawn),"inconclusive: 28.2 µM [activator, partial curve, poor fit]"
3,COc1cc(N(Cc2ccccc2)Cc2ccccc2)c2ncn(C(C)C)c2c1,"inconclusive: 28.2 µM [activator, partial curve, poor fit]"
4,COc1cc(/C=C/C(=O)OCC(=O)N2CCC(Cc3ccccc3)CC2)ccc1O,"inconclusive: 39.8 µM [activator, partial curve]"
5,CCCn1c2ccccc2c2cnn(CC(=O)NCCCN(Cc3ccccc3)C(C)C)c(=O)c21,inactive
6,CC(C)(C)C(c1nc2ccccc2[nH]1)n1c(-c2ccsc2)nc2ccccc21 (stereo not drawn),"inconclusive: 25.1 µM [activator, single point]"
7,Cc1cc(C(=O)CN2C(=O)C3CC=CCC3C2=O)c(C)n1-c1ccccc1 (stereo not drawn),active: 31.6 µM
8,COc1cc(Cl)c(C)cc1NC(=O)c1nn(C)c2c1CSc1ccccc1-2,inactive
9,CC(C)(C)c1ccc(CC(=O)N2CCC2(C)C(=O)NCc2cccc3ccccc23)cc1 (stereo not drawn),"inconclusive: 25.1 µM [activator, single point]"
10,CC(C)(C)OC(=O)NCCCCCc1nnc(SCC(=O)Nc2cccc(Cl)c2)o1,"inconclusive: 31.6 µM [activator, single point]"
11,Cc1ccc(S(=O)(=O)C[C@@H]2OC3CCCCC3N2S(=O)(=O)c2ccc(C)cc2)cc1 (stereo partly drawn),"inconclusive: 35.5 µM [activator, single point]"
12,COC(=O)C(Cc1ccc(OC(=O)c2ccc(C(F)(F)F)cc2)cc1)N1Cc2ccccc2C1=O (stereo not drawn),"inconclusive: 50.1 µM [activator, single point]"
13,O=C(NC1CCCCC1)C(c1ccc2ncccc2c1)N(Cc1ccc2c(c1)OCO2)C(=O)c1cccs1 (stereo not drawn),"inconclusive: 31.6 µM [activator, single point]"
14,CC(C)C(NC(=O)c1ccccc1NC(=O)c1ccccc1)C(=O)NNC(=O)c1ccncc1 (stereo not drawn),"inconclusive: 31.6 µM [activator, single point]"
15,Cc1csc(-c2nc3ccccc3n2C(C(=O)NC(C)(C)C)c2cc3ccccc3o2)c1 (stereo not drawn),"inconclusive: 7.08 µM [activator, full curve]"
16,CC1(C)CC2CC(C)(CN2S(=O)(=O)c2ccc(C(=O)Nc3ccc(S(=O)(=O)N4CCOCC4)cc3)cc2)C1 (stereo not drawn),"inconclusive: 50.1 µM [activator, single point]"
17,Cc1ccc2c(c1)sc(-c1ccc(N(C)C)cc1)[n+]2C,inactive
18,CCCC(=O)Nc1nnc(SCc2cc(=O)n3cccc(C)c3n2)s1,inactive
19,O=S(=O)(c1ccc(Oc2ccc(Br)cc2)cc1)N1CCOCC1,inactive
20,COc1cc(C(=O)NCC(c2ccco2)N2CCc3ccccc32)cc(OC)c1OC (stereo not drawn),"inconclusive: 39.8 µM [activator, single point]"
21,COc1cc(C#Cc2c(-c3ccccc3)n(C)c3ccccc23)cc(OC)c1,"inconclusive: 50.1 µM [activator, single point]"

row,Compound,Potency
1,COC(=O)C1=C(C(=O)OC)[C@]2([C@@H]3CCCCN[C@@H](Cc4ccccc4)C(=O)N3Cc3ccccc3)C=C[C@H]1O2,"inconclusive: 25.1 µM [activator, single point]"
2,N#Cc1ccc(C23OCCN2CCn2c3c3ccccc3[n+]2[O-])cc1 (stereo not drawn),inactive
3,COCCCNC(=S)Nc1ccc(N2CCCCC2)cc1,"inconclusive: 11.2 µM [activator, single point]"
4,CCC(c1nnnn1C1CCCC1)N(Cc1cccs1)Cc1cc2cccc(C)c2[nH]c1=O (stereo not drawn),"inconclusive: 22.4 µM [activator, single point]"
5,CCOc1ccc(-c2noc(CSc3nnc(Cc4ccccc4)n3-c3ccc(F)cc3)n2)cc1,"inconclusive: 10 µM [activator, partial curve]"
6,CC(C)CN(CC(C)C)S(=O)(=O)c1ccc(C(=O)Nc2sc3c(c2C(N)=O)CCN(C(C)C)C3)cc1,"inconclusive: 50.1 µM [activator, single point]"
7,O=C(CNc1ccc(Cl)cc1)c1ccc(Br)cc1,inactive
8,Cc1c(C(=O)OCC(=O)Nc2ccc(N3CCOCC3)cc2)oc2ccccc12,inactive
9,COC(=O)c1scc(-c2ccc(C)cc2)c1S(=O)(=O)N1CCN(c2ccccc2F)CC1,"inconclusive: 15.8 µM [activator, partial curve]"
10,COc1ccc(Cl)cc1NC(=O)CC(C)c1ccccc1 (stereo not drawn),"inconclusive: 0.891 µM [activator, full curve, poor fit]"
11,CC(=O)NC(CSc1cc(C)nc2ccc(Br)cc12)C(=O)O (stereo not drawn),inactive
12,COc1ccc(NS(=O)(=O)c2ccc(C)c(NC(=O)c3ccc(C)c(S(=O)(=O)N4CCOCC4)c3)c2)cc1,"inconclusive: 3.55 µM [activator, full curve, poor fit]"
13,Cc1ccc(NC(=O)C2CCCN(c3ncnc4c3nc3n4CCCCC3)C2)cc1Cl (stereo not drawn),"inconclusive: 35.5 µM [activator, single point]"
14,Cc1cc(/C=C(/C#N)c2nc3ccccc3[nH]2)c(C)n1-c1cc(C(=O)O)cc(C(=O)O)c1,"inconclusive: 15.8 µM [activator, partial curve]"
15,CCC(=O)Nc1ccccc1C(=O)OCc1cc(=O)n2cc(C)sc2n1,inactive
16,COc1ccc(OC)c(NC(=O)Cn2c(CCC(=O)O)ccc2-c2ccccc2)c1,"inconclusive: 50.1 µM [activator, single point]"
17,COc1cc(/C=C2\CC(C(C)(C)C)C/C(=C\c3cc(OC)c(OC)c(OC)c3)C2=O)cc(OC)c1OC (stereo not drawn),"inconclusive: 31.6 µM [activator, single point]"
18,COc1ccc(-c2oc(=O)c3cc(OC)c(OC)cc3c2C#CCCO)cc1,"inconclusive: 50.1 µM [activator, single point]"
19,COc1cccc(N2CCN(c3ncnc4c3[nH]c3ccc(F)cc34)CC2C)c1 (stereo not drawn),"inconclusive: 20 µM [activator, partial curve]"
20,CC1CN(c2ccc(NC(=S)Nc3ccc(N4CC(C)OC(C)C4)cc3)cc2)CC(C)O1 (stereo not drawn),"inconclusive: 31.6 µM [activator, single point]"
21,Cc1cc(C(=O)COC(=O)C2=NNC(=O)CC2)c(C)n1-c1cccc(C(F)(F)F)c1,"inconclusive: 35.5 µM [activator, single point]"
